# Reference: PubChem BioAssay AID1240 (Sanford-Burnham Center for Chemical Genomics, 2008)
# Screen size: about 50,000 compounds; about 800 (1.6%) showed an effect of 50% or more. The list shows a part of the results.
# Molecular target: Bcl-2-like protein 10 (Homo sapiens) (UniProt Q9HD36)
# Experiment: Phenotype converters, Bcl-B/TR3 peptide binding displacement, primary biochemical FP (AID 1240);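 note: 0% = Bcl-B with tracer peptide and DMSO and 100% = tracer peptide lacking Bcl-B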
# Conditions: GST-Bcl-B / FITC-TR3 peptide fluorescence polarization; stronger effect = higher value; compound at 3.75 mg/L
# Sequence of UniProt Q9HD36 (Q9HD36 whole entry, looked up): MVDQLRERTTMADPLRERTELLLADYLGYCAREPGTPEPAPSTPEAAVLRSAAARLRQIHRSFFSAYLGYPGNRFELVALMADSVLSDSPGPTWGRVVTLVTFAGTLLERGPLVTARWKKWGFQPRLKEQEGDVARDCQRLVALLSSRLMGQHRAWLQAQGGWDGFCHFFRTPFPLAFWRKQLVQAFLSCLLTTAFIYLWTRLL
row,SMILES,displacement
1,O=C(Nc1ccccc1C1CC1)c1ccccc1,2.8%
2,CC(C)(O)C#Cc1ccc(C(=O)Nc2ccc(F)cc2)cc1,3.9%
3,CC1=C(C(=O)OCCc2ccccc2)C(c2ccc(C)s2)NC(=O)N1 (stereo unspecified),-9.8%
4,CCOC(=O)C(NS(=O)(=O)c1ccc2c(c1)Cc1ccccc1-2)C(O)c1ccccc1 (stereo unspecified),-1.6%
5,CCN(CC)CCN1C(=O)c2ccccc2NC1c1cccc(F)c1 (stereo unspecified),10.7%
6,COc1cc(NC(=O)COc2ccc(Br)cc2)cc(OC)c1,0%
7,COc1ccc2oc(=O)c(C(=O)Nc3cc(Cl)ccc3OC)cc2c1,5.9%
8,COc1ccc(NC(=O)COc2ccc(Cl)cc2Cl)c([N+](=O)[O-])c1,-12.6%
9,O=C(CCCCCCCCC(=O)N/N=C/C1CC=CCC1)N/N=C/C1CC=CCC1 (stereo unspecified),5.6%
10,CC(=O)COc1ccc2c(c1)oc(=O)c1ccccc12,10%
11,O=C(N/N=C/c1ccc(F)cc1)c1cc(Cl)cc(Cl)c1O,2.2%
12,O=C(Nc1cccc(NC(=O)c2ccccc2Cl)c1)c1ccc2c(c1)OCCO2,-2.7%
13,COc1ccc(S(=O)(=O)N(CC(=O)NCc2ccco2)c2cc(C)cc(C)c2)cc1OC,-3%
14,COc1cc(C(=O)NCc2ccncc2)cc(OC)c1OC,-4%
15,Cn1c(=O)c(-c2nc3ccccc3[nH]2)c(O)c2ccccc21,4.4%
16,Cc1ccc(-c2csc(NC(=O)c3sc4cc(C)ccc4c3Cl)n2)cc1,-6.8%
17,O=C(N/C(=C\c1cccc([N+](=O)[O-])c1)C(=O)N1CCOCC1)c1cccs1,-6.6%
18,Cc1ccc(CN2CCN(C3CCCC3)CC2)cc1,-13.5%
19,O=C(NCc1ccccc1Cl)c1ccccc1I,4.5%
20,CCc1c(C)nc2cc(-c3cccs3)[nH]n2c1=O,6.3%
21,COc1ccc(C(=O)N2CCN(Cc3cccc(Cl)c3)CC2)cc1OC,-11.5%
22,CCCOc1ccc(C(=O)Nc2ccc(Cl)cn2)cc1,13.2%
23,COc1ccc(NC(=O)CCc2ccccc2)cc1,3.9%

row,SMILES,displacement
1,Cc1ccccc1N1C(=O)/C(=C\c2ccc(F)cc2)SC1=S,10.5%
2,C/C(=N\NC(=O)c1cc(C)[nH]n1)c1ccc(Br)cc1,-6%
3,O=C(Nc1ccc(Cl)cc1)c1cc(Cl)ccc1[N+](=O)[O-],7.1%
4,COc1ccccc1NC(=O)CN(c1ccc(Cl)cc1Cl)S(=O)(=O)c1ccccc1,-17.6%
5,COc1ccc(-c2nnc(NC(=O)c3cccc4ccccc34)s2)cc1,6.1%
6,COc1cccc(-n2c(O)c(C=Nc3ccc(F)cc3)c(=O)[nH]c2=O)c1,7.3%
7,Cc1ccc(S(=O)(=O)Nc2ccc(O)c(S(=O)(=O)c3ccc(C)cc3)c2)cc1,3.8%
8,CCCCn1c(/N=C/c2ccc3c(c2)OCO3)nc2ccccc21,5.4%
9,CCC(=Nc1cc(Cl)ccc1O)c1c(C(F)(F)F)[nH]n(-c2nc3ccccc3s2)c1=O,-6%
10,CCOc1ccccc1C(=O)Nc1ccc(N2CCOCC2)cc1,3.2%
11,O=C(O)CC1S/C(=N/N=C/c2ccccc2)N(c2ccc(O)cc2)C1=O (stereo unspecified),9%
12,COc1ccc(N=Cc2ccc(O)c(OC)c2)cc1,3.3%
13,O=C(CCC(=O)N/N=C/c1cc(Br)ccc1O)N/N=C\c1cc(Br)ccc1O,7.8%
14,O=C(NCc1ccco1)c1ccc(Cl)c([N+](=O)[O-])c1,0.5%
15,CCN(CC)c1ccc(/C=C2/SC(=O)N(CNc3ccc(OC)c(Cl)c3)C2=O)cc1,-2.5%
16,CCOc1ccc(N(CC(=O)NCCc2ccccc2)S(=O)(=O)c2ccc(SC)cc2)cc1,5.6%
17,Nc1nonc1-c1nc2ccccc2n1Cc1ccc(F)cc1,0.6%
18,O=C(c1nn2c(C(F)(F)F)cc(-c3ccccc3)nc2c1Br)N1CCCCC1,-8%
19,CCOC(=O)c1c(N)sc(C(=O)Nc2cccc(C(F)(F)F)c2)c1C,-0.7%
20,Cc1[nH]n(-c2ccc([N+](=O)[O-])cc2)c(=O)c1C=NCc1ccc(Cl)cc1,11.8%
21,Cc1ccc(OCC(=O)N2CCC(Cc3ccccc3)CC2)c(Br)c1,-6%
22,O=C(NC(NC(=S)Nc1ccc(Cl)c(Cl)c1)C(Cl)(Cl)Cl)c1ccccc1F (stereo unspecified),0.6%
23,CCOc1c(/C=C2\C(=O)NN(c3ccccc3)C2=O)cccc1OC,11.9%

row,SMILES,displacement
1,CC1(C)Cc2cc3c(=O)n(-c4ccccc4)c(=S)[nH]c3nc2CO1,-2.1%
2,CCOC(=O)C1=C(C)NC2=C(C(=O)c3ccccc32)C1c1cccs1 (stereo unspecified),-2.1%
3,CCCC(=O)NC(c1cccc([N+](=O)[O-])c1)c1c(O)ccc2ccccc12 (stereo unspecified),8.4%
4,Cc1nnc(N/N=C/c2ccccc2Br)[nH]c1=O,-14.4%
5,COC(=O)CN(c1cccc(OC)c1)S(=O)(=O)c1ccccc1,-9.7%
6,Cc1ccccc1NS(=O)(=O)c1cccc(S(=O)(=O)c2ccc(Cl)cc2)c1,-10.2%
7,CCOc1ccccc1NC(=O)CN(c1ccc(OC)cc1OC)S(C)(=O)=O,8.7%
8,COc1ccc(C(=O)Nc2cccc(NC(=O)c3ccc(F)cc3)c2)cc1Br,2.2%
9,COc1ccc(C(=O)NC(N2CCOCC2)C(Cl)(Cl)Cl)cc1OC (stereo unspecified),12.2%
10,C/C(=N/NC(=O)c1ccc(Br)cc1)c1ccc(Cl)cc1,3.9%
11,O=C1CC(NC2CCCC2)C(=O)N1c1ccc(Cl)cc1 (stereo unspecified),-3.6%
12,Cc1ccc(NC(=O)CC2Nc3cc(C)c(C)cc3NC2=O)cc1 (stereo unspecified),-18.7%
13,O=C(COc1ccccc1[N+](=O)[O-])Nc1ccc(Cc2ccncc2)cc1,14%
14,Nc1nnc(CC(=O)N/N=C/c2ccc(OCc3ccc([N+](=O)[O-])cc3)cc2)s1,3.9%
15,O=C(Cc1c(O)c2ccccc2[nH]c1=O)NCCc1ccccc1,0.4%
16,COc1cccc(OC)c1C(=O)Nc1ncn[nH]1,14.8%
17,CC(C)(C)c1ccc(OCCOc2ccc(Cl)cc2/C=N/n2cnnc2)cc1,1.2%
18,CC(=O)C1=C(c2ccccc2)C(=O)c2ccccc2C1=O,-4.7%
19,O=C(CC12CC3CC(CC(C3)C1)C2)NC1CCCCC1,10.3%
20,O=C(/C=C/c1ccccc1)NC(=S)Nc1ccccc1,17.5%
21,Oc1ccc2[nH]c(-c3ccccc3)nc2c1CN1CCCCC1,-25.1%
22,COc1ccc(Nc2ncnc3c2cnn3-c2ccccc2)cc1,-0.9%
23,O=C1NC(=O)N(c2ccc(Br)cc2)C(=O)/C1=C/c1cccs1,-42.8%

row,SMILES,displacement
1,Clc1ccccc1-c1nc(N2CCCC2)c2ccccc2n1,17.9%
2,Cc1c(NC(=S)NC(=O)c2ccc(Cl)cc2)cccc1-c1nc2ncccc2o1,40.4%
3,Cc1cc(C)nc(SCC(=O)N2c3ccccc3Sc3ccc(Cl)cc32)n1,7.9%
4,CC(C)(C)c1ccc(S(=O)(=O)Nc2nc3ccccc3s2)cc1,-4.9%
5,Cc1ccccc1NC(=O)C(=O)NNC(=O)COc1ccc(Cl)cc1,-6.4%
6,Cc1ccc(NC(=S)NN2CCN(C)CC2)cc1,5.2%
7,CCc1cc(=O)oc2cc(OC/C=C/c3ccccc3)ccc12,7.4%
8,CN1CCN(CCCC(=O)c2ccc(F)cc2)CC1,-1.1%
9,COc1ccc(C2/C(=C(/O)c3ccc(Br)cc3)C(=O)C(=O)N2CCc2ccccc2)cc1OC (stereo unspecified),-0.7%
10,Cc1nc2ccc(Br)cn2c1C(=O)NN=C1CCCCCC1,-44.3%
11,O=Cc1ccc(-c2ccccc2OC(F)(F)F)o1,-9.9%
12,O=C(COc1ccc(Cl)cc1Br)N/N=C/c1cc([N+](=O)[O-])ccc1O,14.8%
13,C/C(Nc1ccc(C)cc1)=C(\C#N)C(=O)NC1CCCCC1,-0.6%
14,COc1ccc(OC)c(NC(=O)/C=C/c2ccc(OC)c(OC)c2)c1,5.2%
15,CC(C)(NO)/C(=N\O)c1ccc(F)cc1,15.1%
16,CCOC(=O)C1=C(O)/C(=C/c2ccc(N(C)C)cc2)SC1=Nc1ccc(F)cc1,142%
17,CCOc1ccc(N(CC(=O)NCc2ccccc2C)S(C)(=O)=O)cc1,-5.7%
18,O=C(NNC(=O)c1ccccc1[N+](=O)[O-])Nc1ccccc1,-2.6%
19,Cc1nc2ccc(NC(=O)c3ccc(S(=O)(=O)N4CCOCC4)cc3)cc2s1,-3.6%
20,COc1cc(OC)c(/C=N/N2CCN(c3ccccc3)CC2)c(OC)c1,2.5%
21,CC1=C(C(=O)OC2CCCCC2)C(c2cccc([N+](=O)[O-])c2)C2=C(CCCC2=O)N1 (stereo unspecified),13.1%
22,CC(=O)Nc1ccc(S(=O)(=O)NCCC(C)C)cc1,4.5%
23,CCOC(=O)/C(=C/c1ccc(O)cc1)C(C)=O,7.9%

row,SMILES,displacement
1,Cc1cc(C(=O)N(Cc2ccccc2)Cc2ccccc2)ccc1[N+](=O)[O-],32.9%
2,CC(C)CC(=O)NC(C(Cl)(Cl)Cl)S(=O)(=O)c1ccccc1 (stereo unspecified),2.8%
3,COc1ccc(-n2nc3cc(C)c(NC(=O)c4ccc(Cl)cc4Cl)cc3n2)cc1,-0.6%
4,NC(=O)c1c(NC(=O)CCc2ccccc2)sc2c1CCCCCC2,15.7%
5,Cc1ccccc1NC(=O)/C=C/c1cccc(C(F)(F)F)c1,12.4%
6,CC(=O)c1c(-c2ccc(-c3ccccc3)cc2)nc2n(C)c3ccccc3n12,4%
7,O=C(CC1Sc2ccc(C(F)(F)F)cc2NC1=O)Nc1cccc(C(F)(F)F)c1 (stereo unspecified),-1.9%
8,CCOC(=O)N1CCN(C(=O)COc2ccc3ccccc3c2)CC1,12.5%
9,O=C1c2ccccc2C(=O)N1/N=C/c1ccc(Oc2ccc([N+](=O)[O-])cn2)cc1,14.6%
10,CCCOC(NC(=O)CC)(C(F)(F)F)C(F)(F)F,-5.3%
11,CCOC(=O)C(CC)Oc1ccc2c(C)c(CC)c(=O)oc2c1 (stereo unspecified),-0.6%
12,COc1ccc(CC(=O)Nc2sc3c(c2C(=O)Nc2ccccc2C)CCCC3)cc1,-11.9%
13,O=C1C(=Cc2ccccc2F)C(=O)c2ccccc21,14%
14,CC(C)N/C=C(/c1cc(O)ccc1O)[N+](=O)[O-],23.1%
15,COc1ccc(CNc2cccc(C)c2)cc1OC,16.2%
16,O=C(CCCOc1ccccc1)Nc1ccc(Cl)cc1,-0.7%
17,COc1cccc(NC(=O)Cc2ccccc2[N+](=O)[O-])c1,1.8%
18,CCn1c2ccccc2c2cc(CN3CCN(Cc4cccc(OC)c4)CC3)ccc21,-3%
19,CC(=O)c1ccc(N2C(=O)c3ccccc3C2=O)cc1,2.1%
